Measurements from PubChem BioAssay AID1345082 (National Center for Advancing Translational Sciences (NCATS), 2018).
Out of some 94,000 compounds screened, about 4,000 (4.3%) were called active. The shares of active, inactive and inconclusive entries below differ from those in the screen. The call rests on the fitted dose curve; in most records, active means well fitted inhibition curve with a large enough effect; inconclusive means small, poorly fitted or top-dose-only effect; inactive means no such curve, though single readings can be large or run the other way. Potencies beside an inconclusive call are fits to weak or partial responses and may not hold up.

test: Cytotoxic Profiling in NIH 3T3 Cell Line of Diverse Libraries Using Quantitative High-Throughput Screening; details: NIH 3T3 viability, CellTiter-Glo ATP luminescence, 48-72 h; series mostly up to 96.7 µM; further: nearly all actives have a fitted effect of over 55% in size
In short: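 ATP-dependent luminescence (CellTiter-Glo) served as the viability signal for NIH 3T3 cells treated with compound for 48 or 72 hr at 37 °C.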
Potency means the concentration at half of the fitted maximal effect; tags describe the fitted curve by direction and shape.

Structure (SMILES) | Potency
O=C(c1cccc(Cl)c1)N1CCN(C(=O)c2nc3cccnc3n(CCc3ccccc3)c2=O)CC1 | inconclusive: 50.1 µM [inhibitor, partial curve, poor fit]
C=CCNC(=O)c1ccnc2[nH]ccc12 | inconclusive: 126 µM [inhibitor, partial curve, poor fit]
O=C(NCc1ccco1)c1ccc(Cn2ccn3nc4c(c3c2=O)CCCC4)cc1 | inconclusive: 22.4 µM [inhibitor, full curve]
COc1ccc(CN2C(=O)COC[C@H]2C(=O)Nc2cc(F)ccc2C)c(OC)c1 | inconclusive: 70.8 µM [inhibitor, partial curve, poor fit]
Cc1ccc(C)c(CN2CCn3c(nn(CC4COc5ccccc5O4)c3=O)C2=O)c1 (configuration not stated) | inconclusive: 25.1 µM [inhibitor, partial curve, poor fit]
O=C1CC2(CCN(CC3CCCCC3)CC2)Oc2ccccc2N1 | inactive
Cc1noc(C)c1Cc1ccc(C(=O)NCCc2noc(-c3ccccc3)n2)o1 | inconclusive: 56.2 µM [inhibitor, partial curve, poor fit]
COCCn1c(C)nnc1-c1cc(-c2ccccc2Oc2ccccc2)ccn1 | inconclusive: 100 µM [inhibitor, single point]
COC(=O)c1ccc2c(c1)nc1n2[C@@H](CNCc2ccccc2)COC1 | inconclusive: 89.1 µM [inhibitor, partial curve, poor fit]
O=C1c2c(nc(COc3cc(F)cc(F)c3)n2Cc2ccccc2)NCCN1Cc1ccccc1F | active: 25.1 µM
N#Cc1ccc(CN2CCCC3(C2)NC(=O)c2ccccc2O3)cc1 (configuration not stated) | inconclusive: 50.1 µM [inhibitor, partial curve]
Cc1ccc(-n2c(C3CCN(C(=O)COc4ccc(Cl)cc4)CC3)n[nH]c2=O)cc1 | active: 2.82 µM
Cc1ccc(NC(=O)N2CCC(CCNC(=O)c3ccsc3)CC2)cc1 | inactive
COc1cc(OC)cc(C(=O)NC2CCN(c3cc(-c4ccccc4)[nH]n3)CC2)c1 | inconclusive: 44.7 µM [inhibitor, partial curve, poor fit]
O=C(c1ccn(C(F)F)n1)N1CCCC(c2ccccc2)(c2ccccc2)C1 | inconclusive: 89.1 µM [inhibitor, single point]
COc1ccc(C2Cn3nnc(C(=O)N4CCC(C(=O)NCc5cccc(F)c5)CC4)c3CO2)cc1 (configuration not stated) | inconclusive: 50.1 µM [inhibitor, partial curve, poor fit]
CCC(=O)N1Cc2ccccc2CC2(CCCCN2CC2CCOCC2)C1 (configuration not stated) | inactive
COc1ccccc1-c1ccc(CN2CCCCC2C(=O)Nc2ccccc2F)cc1 (configuration not stated) | inconclusive: 31.6 µM [inhibitor, partial curve, poor fit]
Cc1ccc(C(=O)N2CCC(c3n[nH]c(=O)n3Cc3ccc(F)cc3)CC2)c(C)c1 | inactive
O=C(CC1CCCC1)N1CCCC(Cc2nncn2Cc2ccccc2)C1 (configuration not stated) | inactive
COc1cc(Nc2nc(-c3cccc(OC)c3OC)no2)cc(OC)c1OC | inconclusive: 44.7 µM [inhibitor, partial curve, poor fit]
CN1CC2CN(C(=O)NCc3ccc(F)cc3)CC(C1)O2 | inactive
c1ccc(OCc2cc(CC3(NCc4cccc5c4OCO5)COC3)no2)cc1 | inactive

Structure (SMILES) | Potency
COc1ccc(NC(=O)O[C@@H]2CO[C@H]3[C@@H]2OC[C@@H]3NC(=S)Nc2ccc(Cl)cc2)cc1 | inconclusive: 79.4 µM [inhibitor, partial curve]
O=C(c1ccc2oc(-c3ccncc3)nc2c1)N1CCCCC1 | inconclusive: 35.5 µM [inhibitor, partial curve]
CC1(C(=O)NCC2CC2)CCc2cnc(Nc3ccccc3)nc21 (configuration not stated) | inconclusive: 28.2 µM [inhibitor, full curve]
COc1ccc(OCC(=O)N2CCC3(CC2)N=C(c2ccc(C)cc2)NO3)cc1 | inactive
COc1ccccc1C(=O)N[C@@H]1CN(C2CCOCC2)C[C@H]1CN(C)C | inactive
CC1CCC2(CC1)NC(=O)N(CC(=O)Nc1ccc(C(F)(F)F)cc1)C2=O (configuration not stated) | inconclusive: 7.08 µM [inhibitor, full curve, poor fit]
COc1cccc(CN2CCC(N3CCCNC3=O)CC2)c1 | inactive
CCOc1ccc(C(=O)N[C@@H]2CN(c3ncccn3)C[C@H]2CO)cc1 | inactive
Cc1ccc(S(=O)(=O)N2C[C@@H](F)C[C@H]2C(=O)N2CCc3ccccc3C2)cc1 | inconclusive: 50.1 µM [inhibitor, partial curve, poor fit]
Cc1cc2cc(-c3c(C)noc3C)nc(Nc3cccc(F)c3)c2o1 | inconclusive: 11.2 µM [inhibitor, full curve, poor fit]
COc1ccc(C(=O)N[C@H]2CO[C@H]3[C@@H]2OC[C@@H]3Nc2nccc(-c3cccs3)n2)cc1 | inconclusive: 89.1 µM [inhibitor, single point]
Cc1nn2c(c1-c1ccccc1OCc1ccccc1)N(C(=O)C1CCOCC1)CCC2 | inconclusive: 63.1 µM [inhibitor, partial curve, poor fit]
CN1CC[C@H]2CN(C(=O)CCCCc3ccccc3)C[C@@]2(C(=O)O)C1 | inactive
COc1ccc(CC(=O)N2CCC(Cc3nc(-c4ccccc4)no3)CC2)cc1 | active: 11.2 µM
CCc1ccc(OCC(=O)c2ccc3c(c2)N(CCCC(=O)NCC2CCCO2)C(=O)CO3)cc1 (configuration not stated) | inconclusive: 50.1 µM [inhibitor, partial curve, poor fit]
CCOc1ccccc1C(=O)N1CCN(c2cc(-c3cccs3)[nH]n2)CC1 | inconclusive: 39.8 µM [inhibitor, partial curve, poor fit]
NC(=O)[C@@H]1CN(C(=O)c2cncnc2)C[C@H]1COc1ccccc1 | inactive
CCOc1ccc(NC(=O)N2CCc3cc(OC)c(OC)cc3C2CNC(=O)NC(C)(C)C)cc1 (configuration not stated) | inactive
O=C(NCc1cccc(Cl)c1)C1CN(C2CCCC2)C(=O)N1 (configuration not stated) | inactive
O=C(c1cccc(Cl)c1)N1CCC2(C1)NC(=O)N(Cc1ccc(F)cc1)C2=O (configuration not stated) | inconclusive: 50.1 µM [inhibitor, partial curve, poor fit]
Cc1ccc([S+](=O)([O-])N2CCN(c3nccc(Nc4ccccc4F)n3)CC2)cc1 | inconclusive: 25.1 µM [inhibitor, full curve]
O=C1CC(c2noc(-c3cccc(F)c3)n2)CN1c1ccc(Cl)cc1 (configuration not stated) | inconclusive: 50.1 µM [inhibitor, partial curve, poor fit]
CCCN(C)c1nccnc1OC1CCN(C(=O)c2ccn[nH]2)C1 (configuration not stated) | inactive

Structure (SMILES) | Potency
O[C@@H]1C[C@@H](c2nc(Cc3ccc(F)cc3Cl)no2)N(Cc2cc3ccccc3o2)C1 | inconclusive: 126 µM [inhibitor, single point]
CC(=O)NC1(C)CCCN(Cc2cccc(Nc3ccccc3)c2)C1 (configuration not stated) | inconclusive: 79.4 µM [inhibitor, partial curve]
Cc1cn2nnc(C(=O)NCCc3ccccc3)c2c(=O)[nH]1 | inactive
COC1C(=O)N(c2cccc(F)c2)C12CCN(S(=O)(=O)c1c(C)nn(C)c1C)CC2 (configuration not stated) | inactive
CC1CCN(CC(=O)N2CCC(c3nc4ccccc4o3)CC2)C1=O (configuration not stated) | inactive
CN(C)c1ccc(C(=O)N2CCc3cn(C)c4cccc(c34)C2)cc1 | inconclusive: 50.1 µM [inhibitor, partial curve, poor fit]
O=C(NCc1ccccc1)c1ccc2nnc(-c3cc[nH]c3)n2c1 | inactive
Cc1ccsc1C(=O)NCCC1CCN(C(=O)Nc2cc(F)cc(F)c2)CC1 | inconclusive: 50.1 µM [inhibitor, single point]
O=[S+]([O-])(NC1CCN(c2nccc(Nc3ccccc3Cl)n2)CC1)c1cccs1 | inconclusive: 50.1 µM [inhibitor, partial curve, poor fit]
O=C(c1ccc(Cl)nc1)N1CCN(Cc2ccccc2-c2cccnc2)CC1 | inactive
O=C(NCc1ccccc1F)c1ccc2c(c1)CN(Cc1cccnc1Cl)CCO2 | inconclusive: 50.1 µM [inhibitor, partial curve, poor fit]
O=c1cc(-c2cccnc2)oc2c(-c3ccc(O)c(F)c3)nccc12 | inconclusive: 3.16 µM [inhibitor, full curve, poor fit]
CCN1C(=O)CCc2cc(NC(=O)c3ccc(C(C)C)cc3)ccc21 | inconclusive: 44.7 µM [inhibitor, partial curve, poor fit]
CCOC(=O)C1CCN(C(=O)c2ccc3nc(-c4cccc(C)n4)oc3c2)CC1 | inactive
N#CC1CCN(C(=O)c2cc(Br)cn3ccnc23)CC1 | inactive
COCc1nc(-c2ccc(OC3CN(C(=O)c4cccc(OC)c4)C3)cc2)no1 | inconclusive: 11.2 µM [inhibitor, full curve, poor fit]
Cc1cnc(C(=O)N2CCC(n3nccc3NC(=O)CCOc3ccccc3)CC2)cn1 | inactive
COc1ccc(CN2C(=O)COC[C@@H]2[C@H](O)c2ccc(NC(=O)CC(C)(C)C)cc2)cc1 | inconclusive: 50.1 µM [inhibitor, single point]
O=C(N[C@@H]1CN(C(=O)c2cccc3[nH]ccc23)CC[C@@H]1CO)C1CC1 | inactive
O=C1COc2ccc(NS(=O)(=O)c3cccc(Cl)c3)cc2CN1C1CCCc2ccccc21 (configuration not stated) | inconclusive: 15.8 µM [inhibitor, full curve, poor fit]
O=C(NCc1cccs1)c1ccc(CN2C(=O)NC3(CCS(=O)(=O)CC3)C2=O)cc1 | inactive
